{"source": "PubChem BioAssay AID1347073", "about": "(National Center for Advancing Translational Sciences (NCATS), 2019)", "note": "The campaign covered roughly 45,000 compounds. About 200 (0.44%) were called active. This list was built around the results that the source calls inconclusive (neither active nor inactive); the mix of calls is not that of the screen. Calls follow the shape of the dose curve; as a rule, active = well fitted activation curve with a large enough effect; inconclusive = small, poorly fitted or top-dose-only effect; inactive = no such curve, though single readings can be large or run the other way. A potency beside an inconclusive call is a rough fit, not a confirmed value. Potency is read from the fitted curve at half-maximal effect; tags tell the direction and shape of the fitted curve."}
{"assay": "qHTS of TDP-43 Inhibitors: NCGC Sytravon Library Screen; also: nearly all actives have a fitted effect of over 55% in size; as to growth rescue (activation): 0% is about no effect", "details": "yeast TDP-43 toxicity rescue, BacTiter-Glo growth, 24 h; growth rescue (activation): at 46.1 µM (top of the series)", "summary_of_the_method": "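TDP-43-expressing yeast, pregrown in raffinose, seeded at OD600 0.02 in galactose medium with compound for 24 hr at 30 deg C. Growth read by BacTiter-Glo luminescence, so rescue of toxicity appears as activation.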"}
{"smiles": "CC(=O)c1cccc(NC(=O)C(C)N2CCc3ccccc3C2)c1", "note": "(stereo not drawn)", "Potency": "inconclusive: 35.5 µM [activator, single point]"}
{"smiles": "Cn1c(CNC(=O)c2ccccc2F)nnc1SCC(=O)N1CCN(c2ccccc2)CC1", "Potency": "inactive"}
{"smiles": "CCOC(=O)c1c(C(=O)OCC)c(C)n(CCc2ccccc2)c1C", "Potency": "inconclusive: 12.6 µM [activator, partial curve, poor fit]"}
{"smiles": "COCCCNC(=O)c1cccc2c(-c3ccc(OC)cc3C)coc12", "Potency": "inconclusive: 14.1 µM [activator, partial curve, poor fit]"}
{"smiles": "Cc1cccc(-n2c(SCC(=O)Nc3ncc(Cl)cc3Cl)nc3ccccc32)c1", "Potency": "inconclusive: 31.6 µM [activator, single point]"}
{"smiles": "FC(F)(F)c1cccc(NC(=S)NCc2ccccn2)c1", "Potency": "inconclusive: 20 µM [activator, partial curve, poor fit]"}
{"smiles": "COc1ccc(N2CCN(C(=O)c3ccccc3Br)CC2)c([N+](=O)[O-])c1", "Potency": "inconclusive: 14.1 µM [activator, single point]"}
{"smiles": "CC(=O)OCc1c(C(F)(F)F)nn(C)c1SCc1ccc(Cl)cc1", "Potency": "inconclusive: 10 µM [activator, partial curve, poor fit]"}
{"smiles": "COCCC(=O)N1CCC(n2nccc2NC(=O)CCc2ccccc2)CC1", "Potency": "inactive"}
{"smiles": "CC(=O)Nc1cc(C(=O)N2CCc3ccccc3C2)ccc1Sc1ccc(Cl)cc1", "Potency": "inconclusive: 20 µM [activator, single point]"}
{"smiles": "O=C(c1cc(COc2cccc(C(F)(F)F)c2)on1)N1CCSCC1", "Potency": "inconclusive: 14.1 µM [activator, partial curve, poor fit]"}
{"smiles": "CC1(C(=O)NCCc2ccccc2)Cc2c(-c3ccccc3)ccnc2O1", "note": "(stereo not drawn)", "Potency": "inactive"}
{"smiles": "NC(=O)c1ccccc1N/C=C/C(=O)c1ccc(Cl)cc1Cl", "Potency": "inactive"}
{"smiles": "O=[N+]([O-])c1cccnc1N1CCC(c2cc(-c3ccc(Cl)cc3)n[nH]2)CC1", "Potency": "inconclusive: 25.1 µM [activator, partial curve, poor fit]"}
{"smiles": "O=C(O)CCCn1cc(NC(=O)COc2cccc(Cl)c2)cn1", "growth rescue (activation)": "inconclusive: -52.3% [activator]"}
{"smiles": "O=C(CSc1n[nH]c(-c2cccnc2)n1)Nc1ccccc1C(F)(F)F", "Potency": "inactive"}
{"smiles": "O=C(NC1CCCc2ccccc21)c1cc(Cl)ccn1", "note": "(stereo not drawn)", "Potency": "inconclusive: 20 µM [activator, partial curve, poor fit]"}
{"smiles": "CCc1ccc(C(=O)C(C)OC(=O)C2COc3ccccc3O2)cc1", "note": "(stereo not drawn)", "Potency": "inconclusive: 35.5 µM [activator, single point]"}
{"smiles": "CCCCc1nnc2c(N(C)S(=O)(=O)c3ccccc3)nc3ccccc3n12", "Potency": "inactive"}
{"smiles": "CC(C)C(N)c1csc(NC(=O)Nc2cccc(Cl)c2)n1", "note": "(stereo not drawn)", "Potency": "inactive"}
{"smiles": "O=C(CNC1CCCC1)Nc1cc(Cl)ccc1[N+](=O)[O-]", "Potency": "inconclusive: 20 µM [activator, single point]"}
{"smiles": "O=C(/C=C/c1ccccn1)c1cc(Br)ccc1O", "Potency": "inconclusive: 17.8 µM [activator, partial curve, poor fit]"}
{"smiles": "S=C(Nc1cccc2ccccc12)NC1CCCCC1", "Potency": "inconclusive: 11.2 µM [activator, single point]"}
{"smiles": "CC(C)(Oc1ccc(Cl)cc1)C(=O)NCc1ccc(S(N)(=O)=O)cc1", "Potency": "inactive"}
{"smiles": "O=C(CCSc1ccccc1)N1CCN(c2ccccc2)CC1", "Potency": "inconclusive: 28.2 µM [activator, single point]"}
{"smiles": "Cc1ccnc(SCC(=O)c2cccc([N+](=O)[O-])c2)n1", "Potency": "inconclusive: 10 µM [activator, partial curve]"}
{"smiles": "COc1ccc(CCNc2cc(C)nc3c(-c4ccc(Cl)cc4)cnn23)cc1OC", "Potency": "inconclusive: 22.4 µM [activator, single point]"}
{"smiles": "CCc1nnc(NC(=O)c2nc(S(=O)(=O)Cc3ccc(C)cc3)ncc2Cl)s1", "Potency": "inconclusive: 14.1 µM [activator, partial curve, poor fit]"}
{"smiles": "CCn1c2ccccc2c2cc(NC(=O)c3cccc([N+](=O)[O-])c3)ccc21", "Potency": "inconclusive: 11.2 µM [activator, partial curve, poor fit]"}
{"smiles": "Cc1cccc(NC(=S)NC(C)(C)CC(C)(C)C)c1", "Potency": "inactive"}
{"smiles": "COc1cccc(-c2cnc3c(NC=O)cc(-c4ccc(OC)cc4OC)cn23)c1", "growth rescue (activation)": "inconclusive: 86.5% [activator]"}
{"smiles": "Cc1nc2c(-c3ccccc3)cnn2c(N2CCOCC2)c1C", "Potency": "inconclusive: 7.94 µM [activator, partial curve, poor fit]"}
{"smiles": "O=C(NCCc1ccccc1)c1cccc2c(-c3cccnc3)coc12", "Potency": "inconclusive: 12.6 µM [activator, single point]"}
{"smiles": "O=C(Nc1ccc(Br)cc1)c1ccc(F)c(S(=O)(=O)NCc2cccs2)c1", "Potency": "inconclusive: 28.2 µM [activator, single point]"}
{"smiles": "FC(F)C(F)(F)Oc1cccc(Nc2nccn3c(-c4cccc5cccnc45)cnc23)c1", "growth rescue (activation)": "inconclusive: 95.8% [activator]"}
{"smiles": "CC1(C)Cc2c(sc3nnn(Cc4ccccc4)c(=O)c23)CO1", "Potency": "inconclusive: 10 µM [activator, partial curve, poor fit]"}
{"smiles": "CC1=NOC(=O)/C1=C\\c1ccc2c(c1)OCO2", "Potency": "inconclusive: 35.5 µM [activator, single point]"}
{"smiles": "COc1ccccc1NC(=O)Cc1nnc(SCC(=O)NC2CCCCC2C)n1C", "note": "(stereo not drawn)", "Potency": "inactive"}
{"smiles": "COc1ccc(NC(=O)c2cccc3c(-c4cnn(C)c4)coc23)cc1", "Potency": "inconclusive: 10 µM [activator, partial curve, poor fit]"}
{"smiles": "CCOC(=O)C1=NNC(C(=O)c2ccc(C)cc2)C1c1ccc(C)cc1", "note": "(stereo not drawn)", "Potency": "inconclusive: 35.5 µM [activator, single point]"}
{"smiles": "CC(=O)Nc1ccc(C(=O)OCc2ccc(Cl)c(Cl)c2)cc1", "Potency": "inconclusive: 6.31 µM [activator, single point]"}
{"smiles": "CC(C)CNC(=O)COC(=O)c1c2c(nc3ccccc13)/C(=C\\c1cccs1)CC2", "Potency": "inconclusive: 35.5 µM [activator, partial curve, poor fit]"}
{"smiles": "Clc1ccc(N/N=C/c2ccncc2)cc1Cl", "Potency": "inconclusive: 10 µM [activator, partial curve, poor fit]"}
{"smiles": "OC(c1ccccc1)(c1nc(-c2cccc(C(F)(F)F)c2)cs1)C(F)(F)F", "note": "(stereo not drawn)", "growth rescue (activation)": "inconclusive: -92.9% [activator]"}
{"smiles": "COc1cccc(-c2cnc(C(O)c3ccc(F)c(C)c3)[nH]2)c1", "note": "(stereo not drawn)", "Potency": "inactive"}
{"smiles": "O=C(c1cccnc1)n1nc(NCc2ccccc2)nc1NCc1ccccc1", "Potency": "inconclusive: 35.5 µM [activator, single point]"}
{"smiles": "COCCNC(=S)N/N=C(\\C)c1ccc(C)c([N+](=O)[O-])c1", "Potency": "inconclusive: 11.2 µM [activator, partial curve]"}
{"smiles": "Cc1cccc2cc(C3CC(c4ccco4)=NN3S(C)(=O)=O)c(Cl)nc12", "note": "(stereo not drawn)", "Potency": "inconclusive: 15.8 µM [activator, single point]"}
{"smiles": "N#Cc1c(N)oc(-c2ccco2)c1-c1ccco1", "Potency": "inconclusive: 15.8 µM [activator, partial curve, poor fit]"}
{"smiles": "COc1ccc(NC(=O)c2cc(C3CCCCN3C(=O)CCc3ccccc3)on2)c(C)c1", "note": "(stereo not drawn)", "growth rescue (activation)": "inconclusive: 36.9% [activator]"}
{"smiles": "CC(C)c1nc2oc3c(NCc4ccccn4)ncnc3c2c2c1COC(C)(C)C2", "Potency": "inconclusive: 35.5 µM [activator, single point]"}
{"smiles": "COc1cc2c(cc1OC)CN(C(=O)/C=C/c1ccc(F)cc1)CC2", "Potency": "inconclusive: 11.2 µM [activator, partial curve, poor fit]"}
{"smiles": "O=C(C(Cl)Cl)N1CCN(c2ccccn2)CC1", "Potency": "inactive"}
{"smiles": "Cc1ccc(OC(C)C(=O)Nc2ccc(Cl)cn2)c([N+](=O)[O-])n1", "note": "(stereo not drawn)", "Potency": "inactive"}
{"smiles": "COc1cccc(C(C)(O)c2nc(-c3cccc(C(F)(F)F)c3)cs2)c1", "note": "(stereo not drawn)", "growth rescue (activation)": "inconclusive: 112% [activator]"}
{"smiles": "NC(=S)N/N=C/c1cccc(/C=N/NC(N)=S)c1", "Potency": "inactive"}
{"smiles": "CCCN(Cc1ccccc1)C(=S)Nc1ccc(OCC)cc1", "Potency": "inconclusive: 11.2 µM [activator, partial curve, poor fit]"}
{"smiles": "O=C(Nc1ccccc1Cl)/C(Cl)=C(\\Cl)S(=O)c1ccccc1", "note": "(stereo not drawn)", "growth rescue (activation)": "inconclusive: -93.6% [activator]"}
{"smiles": "Cc1ccc(NC(=O)CN(C)S(=O)(=O)c2ccc3nc(C)sc3c2)c(C)c1", "Potency": "inactive"}
{"smiles": "CC(=O)Oc1ccc2c(=O)oc(-c3ccc([N+](=O)[O-])cc3)nc2c1", "Potency": "inactive"}
{"smiles": "O=C(Nc1ccc(Cl)cc1)c1csc([C@@H]2O[C@H](CO)[C@@H](O)[C@H]2O)n1", "Potency": "inactive"}
{"smiles": "CC(O)(c1ccc(F)c(F)c1)c1nc(-c2cnc3ccccc3c2)cs1", "note": "(stereo not drawn)", "Potency": "inconclusive: 11.2 µM [activator, partial curve, poor fit]"}
{"smiles": "O=C1CC(c2ccc(F)cc2)c2cc3c(cc2N1)CCC3", "note": "(stereo not drawn)", "Potency": "inconclusive: 28.2 µM [activator, single point]"}
{"smiles": "Cc1nc2ccc(S(=O)(=O)N(C)CC(=O)Nc3ccc(Br)c(C)c3)cc2s1", "Potency": "inactive"}
{"smiles": "O=C(c1ccco1)c1cn(CC(=O)N2CCCc3ccccc32)c2ccccc12", "Potency": "active: 17.8 µM"}
{"smiles": "Cc1cccc(C)c1NC(=O)C(Cl)C(=O)c1ccccc1", "note": "(stereo not drawn)", "Potency": "inconclusive: 3.98 µM [activator, full curve, poor fit]"}
{"smiles": "Cc1nnc(SCc2cccc([N+](=O)[O-])c2)s1", "Potency": "inconclusive: 28.2 µM [activator, partial curve, poor fit]"}
{"smiles": "COc1cc(OC)c(C(=O)O/N=C(\\N)c2ccc(C)cc2)cc1OC", "Potency": "inconclusive: 14.1 µM [activator, single point]"}
